Measurements as given in publication PMC5609931.
Results are given in words; binding and its absence hold for the method and conditions named. Binding seen in cells or lysates may run through a third protein. Some binding calls cover weakened binding; strength is not graded here.

Protein sequences, listed by entry. Tags and fused reporters are not part of them. Lines headed by an entry give the natural chain unless they say otherwise; changes in a name come on top. Residues count along the entry.
UniProt Q9BPZ7: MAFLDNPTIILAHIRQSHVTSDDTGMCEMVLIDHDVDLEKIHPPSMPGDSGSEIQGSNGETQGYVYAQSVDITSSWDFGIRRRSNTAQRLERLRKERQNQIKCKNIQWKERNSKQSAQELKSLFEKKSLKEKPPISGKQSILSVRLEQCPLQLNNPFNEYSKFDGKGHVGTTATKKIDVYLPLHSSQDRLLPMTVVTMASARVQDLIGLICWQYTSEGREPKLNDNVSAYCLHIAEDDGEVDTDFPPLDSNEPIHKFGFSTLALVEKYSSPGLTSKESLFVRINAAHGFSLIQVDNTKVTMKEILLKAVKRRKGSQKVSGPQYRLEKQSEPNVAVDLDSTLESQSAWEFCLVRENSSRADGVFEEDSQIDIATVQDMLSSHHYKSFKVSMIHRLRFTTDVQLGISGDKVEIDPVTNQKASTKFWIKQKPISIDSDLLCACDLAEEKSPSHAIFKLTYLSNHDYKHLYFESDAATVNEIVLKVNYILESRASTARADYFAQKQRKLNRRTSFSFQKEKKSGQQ
UniProt P31749: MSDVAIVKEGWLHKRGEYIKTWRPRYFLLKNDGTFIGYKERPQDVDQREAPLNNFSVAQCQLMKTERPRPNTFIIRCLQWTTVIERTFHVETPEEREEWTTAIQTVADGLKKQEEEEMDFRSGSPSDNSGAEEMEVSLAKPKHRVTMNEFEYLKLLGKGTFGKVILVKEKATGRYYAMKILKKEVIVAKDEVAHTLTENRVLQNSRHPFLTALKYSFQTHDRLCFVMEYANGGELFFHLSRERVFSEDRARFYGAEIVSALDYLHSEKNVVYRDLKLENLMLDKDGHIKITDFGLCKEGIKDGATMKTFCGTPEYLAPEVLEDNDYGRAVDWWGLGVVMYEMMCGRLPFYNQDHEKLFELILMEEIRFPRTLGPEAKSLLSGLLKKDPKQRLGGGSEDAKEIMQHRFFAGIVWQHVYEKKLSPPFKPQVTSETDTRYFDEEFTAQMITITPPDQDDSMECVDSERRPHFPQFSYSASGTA
GST-Akt aa 1-107: residues 1-107 of P31749
GST-Akt aa 149-480: residues 149-480 of P31749
UniProt P61224: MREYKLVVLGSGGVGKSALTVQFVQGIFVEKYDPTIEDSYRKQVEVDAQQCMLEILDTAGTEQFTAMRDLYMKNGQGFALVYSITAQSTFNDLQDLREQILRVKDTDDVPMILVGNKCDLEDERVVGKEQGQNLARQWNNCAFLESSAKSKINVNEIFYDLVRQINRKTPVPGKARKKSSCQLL
HA-Rictor aa 1-860 (Q6R327, residues 1-860): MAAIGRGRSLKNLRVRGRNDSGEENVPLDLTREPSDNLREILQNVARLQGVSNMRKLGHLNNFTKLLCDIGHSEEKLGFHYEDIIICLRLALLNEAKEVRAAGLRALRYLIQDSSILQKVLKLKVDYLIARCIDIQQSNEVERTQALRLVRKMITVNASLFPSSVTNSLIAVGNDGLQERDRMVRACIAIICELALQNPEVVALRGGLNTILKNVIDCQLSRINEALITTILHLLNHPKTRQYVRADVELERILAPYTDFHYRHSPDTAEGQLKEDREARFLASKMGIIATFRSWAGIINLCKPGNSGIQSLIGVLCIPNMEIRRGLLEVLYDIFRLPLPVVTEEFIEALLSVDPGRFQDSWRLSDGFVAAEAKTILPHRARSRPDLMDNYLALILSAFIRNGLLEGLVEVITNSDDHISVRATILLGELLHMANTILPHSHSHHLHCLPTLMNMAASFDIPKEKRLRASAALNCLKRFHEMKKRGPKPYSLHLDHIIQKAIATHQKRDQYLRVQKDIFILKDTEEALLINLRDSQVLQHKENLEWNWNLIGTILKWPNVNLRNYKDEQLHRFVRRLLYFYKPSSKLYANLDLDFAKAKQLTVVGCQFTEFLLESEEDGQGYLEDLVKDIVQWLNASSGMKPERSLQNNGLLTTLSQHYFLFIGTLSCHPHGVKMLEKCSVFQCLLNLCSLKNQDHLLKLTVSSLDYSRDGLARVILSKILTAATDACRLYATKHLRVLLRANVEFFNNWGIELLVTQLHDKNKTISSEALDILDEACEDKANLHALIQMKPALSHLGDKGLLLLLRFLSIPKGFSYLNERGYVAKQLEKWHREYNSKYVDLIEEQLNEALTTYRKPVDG
HA-Rictor aa 1181-1708 (Q6R327, residues 1181-1708): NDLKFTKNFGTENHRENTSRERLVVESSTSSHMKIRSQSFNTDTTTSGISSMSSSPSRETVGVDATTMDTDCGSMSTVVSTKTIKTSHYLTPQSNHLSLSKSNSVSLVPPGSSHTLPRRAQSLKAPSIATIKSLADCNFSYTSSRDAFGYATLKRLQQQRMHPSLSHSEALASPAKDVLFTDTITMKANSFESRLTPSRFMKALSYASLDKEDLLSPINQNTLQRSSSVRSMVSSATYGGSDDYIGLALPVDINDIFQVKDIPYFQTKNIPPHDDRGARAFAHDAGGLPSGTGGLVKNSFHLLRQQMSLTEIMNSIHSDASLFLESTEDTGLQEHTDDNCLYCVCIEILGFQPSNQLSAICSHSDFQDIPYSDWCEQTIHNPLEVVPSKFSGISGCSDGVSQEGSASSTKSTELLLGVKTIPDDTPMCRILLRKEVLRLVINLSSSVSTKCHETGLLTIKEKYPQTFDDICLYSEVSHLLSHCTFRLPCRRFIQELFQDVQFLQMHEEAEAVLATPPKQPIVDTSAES
UniProt Q8N122: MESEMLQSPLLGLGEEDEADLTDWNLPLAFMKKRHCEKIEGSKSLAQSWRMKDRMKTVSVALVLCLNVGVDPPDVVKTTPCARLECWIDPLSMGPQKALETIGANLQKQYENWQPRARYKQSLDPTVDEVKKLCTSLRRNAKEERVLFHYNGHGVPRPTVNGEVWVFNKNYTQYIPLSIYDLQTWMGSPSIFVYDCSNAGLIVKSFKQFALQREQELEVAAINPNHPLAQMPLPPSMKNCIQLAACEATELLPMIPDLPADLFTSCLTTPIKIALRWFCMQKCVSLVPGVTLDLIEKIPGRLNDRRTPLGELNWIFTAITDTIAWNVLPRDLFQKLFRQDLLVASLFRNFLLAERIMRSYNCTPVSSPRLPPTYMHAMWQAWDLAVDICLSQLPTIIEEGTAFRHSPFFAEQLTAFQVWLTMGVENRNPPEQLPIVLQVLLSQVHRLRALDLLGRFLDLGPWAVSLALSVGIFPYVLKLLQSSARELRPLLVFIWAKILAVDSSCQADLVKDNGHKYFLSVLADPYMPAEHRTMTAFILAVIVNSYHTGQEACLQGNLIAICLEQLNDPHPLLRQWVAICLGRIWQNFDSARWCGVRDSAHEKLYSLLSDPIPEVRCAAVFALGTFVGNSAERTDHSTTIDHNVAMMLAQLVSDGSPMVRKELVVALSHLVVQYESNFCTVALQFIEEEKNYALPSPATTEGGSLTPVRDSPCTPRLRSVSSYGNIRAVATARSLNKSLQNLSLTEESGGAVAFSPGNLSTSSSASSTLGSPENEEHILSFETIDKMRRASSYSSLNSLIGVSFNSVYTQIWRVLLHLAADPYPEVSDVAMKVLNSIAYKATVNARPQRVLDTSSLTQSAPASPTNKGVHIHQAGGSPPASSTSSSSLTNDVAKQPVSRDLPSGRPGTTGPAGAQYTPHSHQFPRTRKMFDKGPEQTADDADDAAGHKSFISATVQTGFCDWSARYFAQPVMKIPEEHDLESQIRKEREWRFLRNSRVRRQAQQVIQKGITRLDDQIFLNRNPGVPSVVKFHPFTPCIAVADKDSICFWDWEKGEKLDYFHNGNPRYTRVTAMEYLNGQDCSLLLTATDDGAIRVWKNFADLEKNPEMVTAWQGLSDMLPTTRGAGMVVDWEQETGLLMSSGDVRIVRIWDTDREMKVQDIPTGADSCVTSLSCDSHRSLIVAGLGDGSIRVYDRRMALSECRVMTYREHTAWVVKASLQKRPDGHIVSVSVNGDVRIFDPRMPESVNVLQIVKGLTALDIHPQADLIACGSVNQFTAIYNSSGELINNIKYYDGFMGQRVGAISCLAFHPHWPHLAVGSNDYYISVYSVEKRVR

Columns and labels:
[1] = molecular target: FLAG-mSin1 Δaa 240-313 (mouse) (UniProt Q8BKH7); test: co-IP; HEK 293T co-transfected with a FLAG-tagged and an HA- or GST-tagged protein; FLAG antibody IP from lysate (0.25% CHAPS lysis buffer, washes incl. 0.5 M NaCl, 4°C), Western blot with anti-HA or anti-GST
[2] = molecular target: FLAG-mSin1 aa 220-313 (mouse) (UniProt Q8BKH7); test: as above
[3] = molecular target: FLAG-mSin1 wild-type (mouse) (UniProt Q8BKH7); test: as above
[4] = molecular target: FLAG-mSin1 aa 1-460 (mouse) (UniProt Q8BKH7); test: as above
[5] = molecular target: FLAG-mSin1 aa 315-522 (mouse) (UniProt Q8BKH7); test: as above
GST-HaRas G12V = GST-HaRas G12V (UniProt P01112); test: pull-down; HEK 293T co-transfected with a GST-tagged protein and FLAG-mSin1 or a fragment; GSH pull down from lysate, anti-FLAG blot
[6] = molecular target: endogenous mSin1 (human (endogenous in HEK 293T)) (UniProt Q9BPZ7); test: co-IP; endogenous proteins; HEK 293T lysed in buffer containing 0.25% CHAPS; IP and reciprocal IP with Raptor, Rictor or mSin1 antibodies
GST-Akt aa 1-107 = GST-Akt aa 1-107 (UniProt P31749); test: pull-down; HEK 293T co-transfected with a GST-tagged protein and FLAG-mSin1 or a fragment; GSH pull down from lysate, anti-FLAG blot
GST-Akt aa 149-480 = GST-Akt aa 149-480 (UniProt P31749); test: as above
GST-Rap1b G12V = GST-Rap1b G12V (UniProt P61224); test: as above

For GST-Akt WT (from UniProt P31749 1-480), the binding [1] was “no binding”, the binding [2] was “binds” and the binding [3] was “binds”. For the same substance, the binding [4] was “binds” and the binding [5] was “no binding”.

In the case of “HA-Rictor aa 1-860 (from UniProt Q6R327 1-860) (domain or fragment)”, the binding [3] is reported as “no binding”.

In the case of “FLAG-mSin1 aa 260-460 (from UniProt Q8BKH7 260-460) (domain or fragment)”, the binding (GST-HaRas G12V) is reported as “binds”.

For “endogenous Raptor (from UniProt Q8N122 1-1335)”, the binding [6] was “no binding”.

For “HA-Rictor aa 1181-1708 (from UniProt Q6R327 1181-1708) (domain or fragment)”, the binding [3] was “binds”.

In the case of HA-mSin1 (from UniProt Q8BKH7 1-522), the binding [3] is reported as “binds”.

For “FLAG-mSin1 wild-type (from UniProt Q8BKH7 1-522)”, the binding (GST-Akt aa 1-107) was “binds”, the binding (GST-Akt aa 149-480) was “no binding” and the binding (GST-HaRas G12V) was “binds”. For the same substance, the binding (GST-Rap1b G12V) was “no binding”.
